# From paper PMC7819943, “Rice protein-binding microarrays: a tool to detect cis-acting elements near promoter regions in rice”
# The list shows a part of the results.
# Biological target: T1, OsWOX13 (Oryza sativa, UniProt Q5QMM3 1-267)
# T1 sequence: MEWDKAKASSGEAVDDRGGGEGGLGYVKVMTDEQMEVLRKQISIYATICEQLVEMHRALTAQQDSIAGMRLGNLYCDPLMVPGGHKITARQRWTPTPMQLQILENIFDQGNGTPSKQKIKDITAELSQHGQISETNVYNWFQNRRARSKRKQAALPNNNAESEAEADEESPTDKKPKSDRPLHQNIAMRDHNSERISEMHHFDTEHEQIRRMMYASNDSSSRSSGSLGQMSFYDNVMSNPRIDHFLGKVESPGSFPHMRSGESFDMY
# Assay: protein-binding microarray (RPBM); PBS, 2% BSA, 51.3 ng/ul salmon testes DNA, 50 uM zinc acetate, 200 nM TF, 25 C, 1 h; high values mean tight binding
# Conditions: protein: recombinant; tags: N-terminal polyhistidine and DsRed monomer fusion (pET32a); label: CyDye5-dUTP incorporated in the synthesized complementary strand; 3' TTTTT single-stranded linker to array surface; dsDNA, one strand shown
# How it was run: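 Polyhistidine-tagged DsRed fusions of transcription factors, joined at the N-terminus, were expressed in E. coli BL21-CodonPlus and isolated on Ni–NTA. They were incubated at 200 nM for 1 h at 25 °C on a custom Agilent array, double-stranded and BSA-blocked, in PBS with 2% BSA, salmon testes DNA and 50 µM zinc acetate. The binding signal is per-feature fluorescence intensity (arbitrary units) read on an Axon 4000B scanner after washing.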
row,Sequence,binding signal
1,ATGTTAGATTAAATAAAACTAATTTTATTATAAACAAACTCGGAGTCACCTAGTGCAG,10500 fluorescence intensity (a.u.)
2,TAGCTTAATTTGATTTCTATTTAAGACCTTGACATTAACGCGGAGTCACCTAGTGCAG,24400 fluorescence intensity (a.u.)
3,GCATAATCAGTATCCTAATCTACCTGCTCACATGAAAACACGGAGTCACCTAGTGCAG,6550 fluorescence intensity (a.u.)
4,TTTCCAATCACGTATTCCGGACAAAGGCCTAAACCTGCTCCGGAGTCACCTAGTGCAG,30900 fluorescence intensity (a.u.)
5,TATGATGATGACATATGGTTGTATGGTCTTTGCTGTGACGCGGAGTCACCTAGTGCAG,12000 fluorescence intensity (a.u.)
6,TTACAAATTTGTGATTCATTGTTTGGATCTGTGATGTATTCGGAGTCACCTAGTGCAG,3860 fluorescence intensity (a.u.)
7,TTTAATTTAGGGATAATTTCTTAACTATGCGACAAGACAACGGAGTCACCTAGTGCAG,14000 fluorescence intensity (a.u.)
8,ATTGATTATGCCATGATTGGATCTTGGCACAGTGCTCTGCCGGAGTCACCTAGTGCAG,60300 fluorescence intensity (a.u.)
9,ACAAATTTGACGAGCGTGATGTACAAAATCTGCATAAGCACGGAGTCACCTAGTGCAG,42000 fluorescence intensity (a.u.)
10,AATGATGAGTTGATGACACACTGATGAAGGAGCAAAGCAGCGGAGTCACCTAGTGCAG,17400 fluorescence intensity (a.u.)
11,ACATACAATTTGGACTTGATTTAGTCTTTTAATTTGTGACCGGAGTCACCTAGTGCAG,7100 fluorescence intensity (a.u.)
12,AAAGAATTAACGGCGGTGACGGGTTGGGTGCTTACCATGCCGGAGTCACCTAGTGCAG,4730 fluorescence intensity (a.u.)
13,TTCTAAAATTTAAATTTTGACTTTTAAGTATAAGCGAAAACGGAGTCACCTAGTGCAG,7040 fluorescence intensity (a.u.)
14,TACTGAGAAATTATTATAATTTCAATTCAATTGAGAGAAGCGGAGTCACCTAGTGCAG,11400 fluorescence intensity (a.u.)
15,TTGTCGATTCATAATTGACTAATTAAGCAAACGCATATCCCGGAGTCACCTAGTGCAG,17700 fluorescence intensity (a.u.)
16,CCTTTTAATTTTCTAGTAGTTTAAGGTGACGGATTAGCTGCGGAGTCACCTAGTGCAG,8150 fluorescence intensity (a.u.)
17,CTATTTAATTAGTTAATTAGGTGTCAATCTTAGGAGAAGTCGGAGTCACCTAGTGCAG,44700 fluorescence intensity (a.u.)
18,CAAATCATAACGCAATTAGGATTAAAAGATTCGTCTTGCACGGAGTCACCTAGTGCAG,8990 fluorescence intensity (a.u.)
19,TAGGGATTTAAATTGTAAAACCTATAGTTTTGTGATGACTCGGAGTCACCTAGTGCAG,4740 fluorescence intensity (a.u.)
20,TAGTAAAATTAATTGCTAGAAAACACATAAAAGCTTAGTACGGAGTCACCTAGTGCAG,23600 fluorescence intensity (a.u.)
21,TAACCATACACTAATAATTATTTCATTTTGCTGCGGAGGGCGGAGTCACCTAGTGCAG,5110 fluorescence intensity (a.u.)

row,Sequence,binding signal
1,TCTCCTATTATTGATTTGTACATGCCCCTTAGCCTTTTCTCGGAGTCACCTAGTGCAG,25800 fluorescence intensity (a.u.)
2,AGTATAATTAGCATACTATGATATCGATATACACGTTATGCGGAGTCACCTAGTGCAG,31400 fluorescence intensity (a.u.)
3,CAGAATGATTGTGCTTAATTGTAAAATTGATTTTAGGATTCGGAGTCACCTAGTGCAG,61100 fluorescence intensity (a.u.)
4,TTCAGTAAATTGACCCCGACGAATTCTCCATGTGTTGTGTCGGAGTCACCTAGTGCAG,27500 fluorescence intensity (a.u.)
5,GTTTATTTGGGCCTGATTGGCACAGATGGTAGTGCCATGTCGGAGTCACCTAGTGCAG,31700 fluorescence intensity (a.u.)
6,TAATGCTTTAATTGACTAGAGTTCAGTCATGAGCAGTACTCGGAGTCACCTAGTGCAG,31700 fluorescence intensity (a.u.)
7,TCTAACTTTTCCATCACATCGTTCCAATTTCAACCAAACTCGGAGTCACCTAGTGCAG,5470 fluorescence intensity (a.u.)
8,GTCGAAAATTATATCGGAATTAGCAGAGTGTGGCATAGCACGGAGTCACCTAGTGCAG,4260 fluorescence intensity (a.u.)
9,ACACATAACTTTAATCTCATCGCATCAGGCAGAAACAAGCCGGAGTCACCTAGTGCAG,3560 fluorescence intensity (a.u.)
10,TTGTTAGATTGAAAATCTTGAATTAGGGGACTAATGTTCTCGGAGTCACCTAGTGCAG,27000 fluorescence intensity (a.u.)
11,ACATTGATTTCATGATACATTTGGGTTTAATATTGATAGGCGGAGTCACCTAGTGCAG,22100 fluorescence intensity (a.u.)
12,TTTTATATTAATTTATGTGTGAGACTGACGTGTGGGTCCCCGGAGTCACCTAGTGCAG,15000 fluorescence intensity (a.u.)
13,ATTCAGCAATTATTTAAATATTAAATTAATCATTAAATGGCGGAGTCACCTAGTGCAG,13600 fluorescence intensity (a.u.)
14,ACTTTAATTCTTTTCCATCACATCAACCTGTTATACACACCGGAGTCACCTAGTGCAG,4220 fluorescence intensity (a.u.)
15,GTTTGTTGCAATCACGCCATCTTCACTTCTCCTCAAAGGGCGGAGTCACCTAGTGCAG,4210 fluorescence intensity (a.u.)
16,TTAATACTTTTAATTAGTGTCCAAACATTCGATGTGGCATCGGAGTCACCTAGTGCAG,4460 fluorescence intensity (a.u.)
17,TGTGTGATTGCAGAAAATATGATTTAGCTTATGTTATTCTCGGAGTCACCTAGTGCAG,25600 fluorescence intensity (a.u.)
18,AAATTAAATAACATGTGATTATGGCATACTGTAAGTAGTACGGAGTCACCTAGTGCAG,12000 fluorescence intensity (a.u.)
19,CTTCTACGTGTGCTACTGATAATTGGGAAAATTGGAACCGCGGAGTCACCTAGTGCAG,3840 fluorescence intensity (a.u.)
20,GCCAAATTAACACAAAGGGATTATTTTCCACCTAGAATTTCGGAGTCACCTAGTGCAG,10500 fluorescence intensity (a.u.)
21,GAGCCCAATCAAGTTGTAACACGAGCCCCGTCAAAGTTGTCGGAGTCACCTAGTGCAG,8310 fluorescence intensity (a.u.)
